Test results reported in the supplement of paper PMC4604168 (melanoma cell lines).
The list shows a part of the results. Single values are uncertain, as repeats are few or missing.

test system: WM1716; experiment: cell count relative to DMSO control; melanoma cells; higher = more viable cells; settings: library dose: standard library concentration; 72 h
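Further: cells treated in 1,536-well plates, then fixed and DAPI-stained, with nuclei counted from automated high-throughput microscope images.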

| Compound | cell count |
| --- | --- |
| CCCS(=O)(=O)Nc1ccc(F)c(C(=O)c2c[nH]c3ncc(Cl)cc23)c1F + OCCn1cc(-c2cnc3nnn(Cc4ccc5ncccc5c4)c3n2)cn1 [PF04217903] (first compound 0.4 µM, partner dose 5 µM) | 57.3% |
| CS(=O)(=O)c1ccc(C(=O)Nc2ccc(Cl)c(-c3ccccn3)c2)c(Cl)c1 [vismodegib] + CC(=O)c1c(C)c2cnc(Nc3ccc(N4CCNCC4)cn3)nc2n(C2CCCC2)c1=O [palbociclib] (first compound 5 µM, partner dose 0.2 µM) | 52% |
| CN(c1ncccc1CNc1nc(Nc2ccc3c(c2)CC(=O)N3)ncc1C(F)(F)F)S(C)(=O)=O + CS(=O)(=O)CCNCc1ccc(-c2ccc3ncnc(Nc4ccc(OCc5cccc(F)c5)c(Cl)c4)c3c2)o1 [lapatinib] (first compound 0.4 µM, partner dose 4 µM) | 64.8% |
| CN(c1ncccc1CNc1nc(Nc2ccc3c(c2)CC(=O)N3)ncc1C(F)(F)F)S(C)(=O)=O + Cn1c(Nc2ccc(C(F)(F)F)cc2)nc2cc(Oc3ccnc(-c4ncc(C(F)(F)F)[nH]4)c3)ccc21 [CHIR265] (first compound 0.4 µM, partner dose 0.4 µM) | 59.8% |
| CS(=O)(=O)c1ccc(C(=O)Nc2ccc(Cl)c(-c3ccccn3)c2)c(Cl)c1 [vismodegib] + Cn1c(Nc2ccc(C(F)(F)F)cc2)nc2cc(Oc3ccnc(-c4ncc(C(F)(F)F)[nH]4)c3)ccc21 [CHIR265] (first compound 5 µM, partner dose 0.4 µM) | 79.4% |
| CS(=O)(=O)c1ccc(C(=O)Nc2ccc(Cl)c(-c3ccccn3)c2)c(Cl)c1 [vismodegib] + O=C(CCCCCCC(=O)Nc1ccccc1)NO [vorinostat] (first compound 5 µM, partner dose 0.4 µM) | 65.8% |
| CS(=O)(=O)c1ccc(C(=O)Nc2ccc(Cl)c(-c3ccccn3)c2)c(Cl)c1 [vismodegib] + Cc1cc(Nc2cc(N3CCN(C)CC3)nc(/C=C/c3ccccc3)n2)n[nH]1 [ENMD2076] (first compound 5 µM, partner dose 0.2 µM) | 91.8% |
| CS(=O)(=O)c1ccc(C(=O)Nc2ccc(Cl)c(-c3ccccn3)c2)c(Cl)c1 [vismodegib] + OCc1c[nH]c2ccccc12 [Indole-3-carbinol] (first compound 5 µM, partner dose 4 µM) | 103% |
| CN(c1ncccc1CNc1nc(Nc2ccc3c(c2)CC(=O)N3)ncc1C(F)(F)F)S(C)(=O)=O + C[C@]1(c2nc3c(C(N)=O)cccc3[nH]2)CCCN1 [Veliparib] (first compound 0.4 µM, partner dose 7 µM) | 87.2% |
| C=C(c1ccc(C(=O)O)cc1)c1cc2c(cc1C)C(C)(C)CCC2(C)C [Bexarotene] + Cc1ccc(NC(=O)c2cccc(N(C)C)c2)cc1NC(=O)c1ccc(O)cc1 [ZM336372] (first compound 10 µM, partner dose 10 µM) | 97.7% |
| CCCS(=O)(=O)Nc1ccc(F)c(C(=O)c2c[nH]c3ncc(Cl)cc23)c1F + CC1(C)NC(=O)N(c2ccc([N+](=O)[O-])c(C(F)(F)F)c2)C1=O [nilutamide] (first compound 0.4 µM, partner dose 5 µM) | 66.9% |
| CS(=O)(=O)c1ccc(C(=O)Nc2ccc(Cl)c(-c3ccccn3)c2)c(Cl)c1 [vismodegib] + C[C@@H]1CCN(C(=O)CC#N)C[C@@H]1N(C)c1ncnc2[nH]ccc12 [CP690550] (first compound 5 µM, partner dose 5 µM) | 96.3% |
| NC1(c2ccc(-c3nc4ccn5c(=O)[nH]nc5c4cc3-c3ccccc3)cc2)CCC1 + CN(NC(=O)CC(=O)NN(C)C(=S)c1ccccc1)C(=S)c1ccccc1 [STA4783] (first compound 2 µM, partner dose 0.03 µM) | 59.6% |
| CS(=O)(=O)c1ccc(C(=O)Nc2ccc(Cl)c(-c3ccccn3)c2)c(Cl)c1 [vismodegib] + Nc1ccn([C@@H]2O[C@H](CO)[C@@H](O)C2(F)F)c(=O)n1 [gemcitabine] (first compound 5 µM, partner dose 0.002 µM) | 97.2% |
| CCCS(=O)(=O)Nc1ccc(F)c(C(=O)c2c[nH]c3ncc(Cl)cc23)c1F + O=C(CCCCCCC(=O)Nc1ccccc1)NO [vorinostat] (first compound 0.4 µM, partner dose 0.4 µM) | 96.4% |
| CN(c1ncccc1CNc1nc(Nc2ccc3c(c2)CC(=O)N3)ncc1C(F)(F)F)S(C)(=O)=O + Cn1nnc2c(C(N)=O)ncn2c1=O [temozolomide] (first compound 0.4 µM, partner dose 10 µM) | 50.1% |
| CCCS(=O)(=O)Nc1ccc(F)c(C(=O)c2c[nH]c3ncc(Cl)cc23)c1F + COc1ccc(Cl)c(Nc2nc3ccccc3nc2NS(=O)(=O)c2cccc(NC(=O)C(C)(C)N)c2)c1 [XL147] (first compound 0.4 µM, partner dose 4 µM) | 67.9% |
| NC1(c2ccc(-c3nc4ccn5c(=O)[nH]nc5c4cc3-c3ccccc3)cc2)CCC1 + Cn1c(=O)n(-c2ccc(C(C)(C)C#N)cc2)c2c3cc(-c4cnc5ccccc5c4)ccc3ncc21 [NVP-BEZ235] (first compound 2 µM, partner dose 0.02 µM) | 52.2% |
| NC1(c2ccc(-c3nc4ccn5c(=O)[nH]nc5c4cc3-c3ccccc3)cc2)CCC1 + Cc1nc(Nc2ncc(C(=O)Nc3c(C)cccc3Cl)s2)cc(N2CCN(CCO)CC2)n1 [dasatanib] (first compound 2 µM, partner dose 0.02 µM) | 66.6% |
| NC1(c2ccc(-c3nc4ccn5c(=O)[nH]nc5c4cc3-c3ccccc3)cc2)CCC1 + O=C(Nc1cccc(Cl)c1)Nc1ncc(CCNc2ncnc3ccsc23)s1 [SNS314] (first compound 2 µM, partner dose 0.004 µM) | 69.7% |
| CCCS(=O)(=O)Nc1ccc(F)c(C(=O)c2c[nH]c3ncc(Cl)cc23)c1F + Cc1ccc(NC(=O)c2cccc(N(C)C)c2)cc1NC(=O)c1ccc(O)cc1 [ZM336372] (first compound 0.4 µM, partner dose 10 µM) | 104% |
| CCCS(=O)(=O)Nc1ccc(F)c(C(=O)c2c[nH]c3ncc(Cl)cc23)c1F + Nc1nc(F)nc2c1ncn2[C@@H]1O[C@H](CO)[C@@H](O)[C@@H]1O [fludarabine] (first compound 0.4 µM, partner dose 1 µM) | 72.7% |
| CS(=O)(=O)c1ccc(C(=O)Nc2ccc(Cl)c(-c3ccccn3)c2)c(Cl)c1 [vismodegib] + C[C@@H](Oc1cc(-c2cnn(C3CCNCC3)c2)cnc1N)c1c(Cl)ccc(F)c1Cl [Crizotinib] (first compound 5 µM, partner dose 1 µM) | 89.2% |
| C=C(c1ccc(C(=O)O)cc1)c1cc2c(cc1C)C(C)(C)CCC2(C)C [Bexarotene] + CC1(C)NC(=O)N(c2ccc([N+](=O)[O-])c(C(F)(F)F)c2)C1=O [nilutamide] (first compound 10 µM, partner dose 5 µM) | 93.6% |
| NC1(c2ccc(-c3nc4ccn5c(=O)[nH]nc5c4cc3-c3ccccc3)cc2)CCC1 + C[C@@H]1CCN(C(=O)CC#N)C[C@@H]1N(C)c1ncnc2[nH]ccc12 [CP690550] (first compound 2 µM, partner dose 5 µM) | 66.3% |
| CN(c1ncccc1CNc1nc(Nc2ccc3c(c2)CC(=O)N3)ncc1C(F)(F)F)S(C)(=O)=O + CC(=O)c1c(C)c2cnc(Nc3ccc(N4CCNCC4)cn3)nc2n(C2CCCC2)c1=O [palbociclib] (first compound 0.4 µM, partner dose 0.2 µM) | 39.1% |
| C=C(c1ccc(C(=O)O)cc1)c1cc2c(cc1C)C(C)(C)CCC2(C)C [Bexarotene] + CN(C)S(=O)(=O)c1ccc2c(c1)/C(=C/c1cc3c([nH]1)CCCC3)C(=O)N2 [SU6656] (first compound 10 µM, partner dose 2 µM) | 68% |
| CCCS(=O)(=O)Nc1ccc(F)c(C(=O)c2c[nH]c3ncc(Cl)cc23)c1F + O=C(O)c1ccc(-c2c[nH]c3ncc(-c4ccccc4)cc23)cc1C1CCCC1 [GSK650394] (first compound 0.4 µM, partner dose 0.8 µM) | 59.8% |
| CS(=O)(=O)c1ccc(C(=O)Nc2ccc(Cl)c(-c3ccccn3)c2)c(Cl)c1 [vismodegib] + CCCS(=O)(=O)Nc1ccc(F)c(C(=O)c2c[nH]c3ncc(Cl)cc23)c1F [PLX4720] (first compound 5 µM, partner dose 0.4 µM) | 69.1% |
